# Source: the supplement of paper PMC8728848
# The other results are listed elsewhere or left out.
# B1: PRKCE (Homo sapiens), Q02156 (protein)
# chain: MVVFNGLLKIKICEAVSLKPTAWSLRHAVGPRPQTFLLDPYIALNVDDSRIGQTATKQKTNSPAWHDEFVTDVCNGRKIELAVFHDAPIGYDDFVANCTIQFEELLQNGSRHFEDWIDLEPEGRVYVIIDLSGSSGEAPKDNEERVFRERMRPRKRQGAVRRRVHQVNGHKFMATYLRQPTYCSHCRDFIWGVIGKQGYQCQVCTCVVHKRCHELIITKCAGLKKQETPDQVGSQRFSVNMPHKFGIHNYKVPTFCDHCGSLLWGLLRQGLQCKVCKMNVHRRCETNVAPNCGVDARGIAKVLADLGVTPDKITNSGQRRKKLIAGAESPQPASGSSPSEEDRSKSAPTSPCDQEIKELENNIRKALSFDNRGEEHRAASSPDGQLMSPGENGEVRQGQAKRLGLDEFNFIKVLGKGSFGKVMLAELKGKDEVYAVKVLKKDVILQDDDVDCTMTEKRILALARKHPYLTQLYCCFQTKDRLFFVMEYVNGGDLMFQIQRSRKFDEPRSRFYAAEVTSALMFLHQHGVIYRDLKLDNILLDAEGHCKLADFGMCKEGILNGVTTTTFCGTPDYIAPEILQELEYGPSVDWWALGVLMYEMMAGQPPFEADNEDDLFESILHDDVLYPVWLSKEAVSILKAFMTKNPHKRLGCVASQNGEDAIKQHPFFKEIDWVLLEQKKIKPPFKPRIKTKRDVNNFDQDFTREEPVLTLVDEAIVKQINQEEFKGFSYFGEDLMP
# Assays:
# Assay in all cases: glycan array binding signal (z-score within array); higher = stronger binding
# Conditions in all cases: glycan notation: IUPAC condensed, linker removed
# [1] = target: Fuc(a1-3)[Gal(b1-4)]GlcNAc(b1-4)Gal(b1-4)[Fuc(a1-3)]GlcNAc
# How it was run: (§1)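 Arrays were curated from the Consortium for Functional Glycomics database, 3228 in total, and kept only where the protein sequence was available. Binding is expressed as a within-array Z-score. This score was averaged across arrays of the same protein sequence at different concentrations or buffers and across linkers, and negative values can be read as non-binding.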
# [2] = target: Fuc(a1-3)[Gal(b1-4)]GlcNAc(b1-4)Gal(b1-4)[Fuc(a1-3)]GlcNAc(b1-4)Gal(b1-4)[Fuc(a1-3)]GlcNAc
# How it was run: as §1
# [3] = target: Fuc(a1-3)[Gal(b1-4)]GlcNAc(b1-6)GalNAc
# How it was run: as §1
# [4] = target: Fuc(a1-3)[Gal(b1-4)]GlcNAc(b1-6)[Gal(b1-3)GlcNAc(b1-3)]Gal(b1-4)Glc
# How it was run: as §1
# [5] = target: Fuc(a1-3)[Gal(b1-4)]GlcNAc(b1-6)[Neu5Ac(a2-3)Gal(b1-3)]GalNAc
# How it was run: as §1
# [6] = target: Fuc(a1-3)[Gal(b1-4)]GlcNAc6S
# How it was run: as §1
# [7] = target: Fuc(a1-3)[Gal3S(b1-4)]GlcNAc
# How it was run: as §1
# [8] = target: Fuc(a1-3)[Gal3S(b1-4)]GlcNAc6S
# How it was run: as §1
# [9] = target: Fuc(a1-3)[GalNAc(b1-4)]GlcNAc
# How it was run: as §1
# [10] = target: Fuc(a1-3)[GalNAc(b1-4)]GlcNAc6S
# How it was run: as §1
# [11] = target: Fuc(a1-3)[GalNAc3S(b1-4)]GlcNAc
# How it was run: as §1
# Fuc(a1-4)GlcNAc = target: Fuc(a1-4)GlcNAc
# How it was run: as §1
# Fuc(b1-3)GlcNAc = target: Fuc(b1-3)GlcNAc
# How it was run: as §1
# Gal(a1-2)Gal = target: Gal(a1-2)Gal
# How it was run: as §1
# Gal(a1-3)Gal = target: Gal(a1-3)Gal
# How it was run: as §1
# Gal(a1-3)Gal(b1-3)GlcNAc = target: Gal(a1-3)Gal(b1-3)GlcNAc
# How it was run: as §1
# [12] = target: Gal(a1-3)Gal(b1-3)GlcNAc(b1-2)Man(a1-3)[Gal(a1-3)Gal(b1-3)GlcNAc(b1-2)Man(a1-6)]Man(b1-4)GlcNAc(b1-4)GlcNAc
# How it was run: as §1
# [13] = target: Gal(a1-3)Gal(b1-3)GlcNAc(b1-3)GalNAc
# How it was run: as §1
# [14] = target: Gal(a1-3)Gal(b1-3)GlcNAc(b1-6)GalNAc
# How it was run: as §1
# [15] = target: Gal(a1-3)Gal(b1-3)[Fuc(a1-4)]GlcNAc(b1-2)Man(a1-3)[Gal(a1-3)Gal(b1-3)[Fuc(a1-4)]GlcNAc(b1-2)Man(a1-6)]Man(b1-4)GlcNAc(b1-4)GlcNAc
# How it was run: as §1
# Gal(a1-3)Gal(b1-4)Glc = target: Gal(a1-3)Gal(b1-4)Glc
# How it was run: as §1
# Gal(a1-3)Gal(b1-4)GlcNAc = target: Gal(a1-3)Gal(b1-4)GlcNAc
# How it was run: as §1
# [16] = target: Gal(a1-3)Gal(b1-4)GlcNAc(b1-3)GalNAc
# How it was run: as §1
# [17] = target: Gal(a1-3)Gal(b1-4)GlcNAc(b1-6)GalNAc
# How it was run: as §1
# [18] = target: Gal(a1-3)Gal(b1-4)[Fuc(a1-3)]GlcNAc
# How it was run: as §1
# [19] = target: Gal(a1-3)Gal(b1-4)[Fuc(a1-3)]GlcNAc(b1-2)Man(a1-3)[Gal(a1-3)Gal(b1-4)[Fuc(a1-3)]GlcNAc(b1-2)Man(a1-6)]Man(b1-4)GlcNAc(b1-4)GlcNAc
# How it was run: as §1
# Gal(a1-3)GalNAc = target: Gal(a1-3)GalNAc
# How it was run: as §1
# [20] = target: Gal(a1-3)[Gal(a1-4)]Gal(b1-4)GlcNAc
# How it was run: as §1
# [21] = target: Gal(a1-4)Gal(b1-3)GlcNAc(b1-2)Man(a1-3)[Gal(a1-4)Gal(b1-3)GlcNAc(b1-2)Man(a1-6)]Man(b1-4)GlcNAc(b1-4)GlcNAc
# How it was run: as §1
# Gal(a1-4)Gal(b1-4)Glc = target: Gal(a1-4)Gal(b1-4)Glc
# How it was run: as §1
binder,measurement,setting,value
B1,glycan array binding signal (z-score),[1],-0.39
same,glycan array binding signal (z-score),[2],-0.315
same,glycan array binding signal (z-score),[3],-0.275
same,glycan array binding signal (z-score),[4],-0.287
same,glycan array binding signal (z-score),[5],-0.246
same,glycan array binding signal (z-score),[6],-0.306
same,glycan array binding signal (z-score),[7],0.149
same,glycan array binding signal (z-score),[8],-0.3
same,glycan array binding signal (z-score),[9],-0.203
same,glycan array binding signal (z-score),[10],-0.356
same,glycan array binding signal (z-score),[11],-0.055
same,glycan array binding signal (z-score),Fuc(a1-4)GlcNAc,-0.359
same,glycan array binding signal (z-score),Fuc(b1-3)GlcNAc,-0.408
same,glycan array binding signal (z-score),Gal(a1-2)Gal,0.035
same,glycan array binding signal (z-score),Gal(a1-3)Gal,-0.356
same,glycan array binding signal (z-score),Gal(a1-3)Gal(b1-3)GlcNAc,-0.361
same,glycan array binding signal (z-score),[12],0.18
same,glycan array binding signal (z-score),[13],-0.4
same,glycan array binding signal (z-score),[14],1.47
same,glycan array binding signal (z-score),[15],0.067
same,glycan array binding signal (z-score),Gal(a1-3)Gal(b1-4)Glc,-0.108
same,glycan array binding signal (z-score),Gal(a1-3)Gal(b1-4)GlcNAc,-0.439
same,glycan array binding signal (z-score),[16],-0.299
same,glycan array binding signal (z-score),[17],-0.236
same,glycan array binding signal (z-score),[18],-0.375
same,glycan array binding signal (z-score),[19],0.183
same,glycan array binding signal (z-score),Gal(a1-3)GalNAc,-0.322
same,glycan array binding signal (z-score),[20],0.295
same,glycan array binding signal (z-score),[21],-0.305
same,glycan array binding signal (z-score),Gal(a1-4)Gal(b1-4)Glc,-0.307
